According to the supplement of paper PMC10369915:
This is one part of the list. Cut-off read from the data, not from the text of the source: active = 3.2 or more and inactive = the rest. Only a few entries rise above the background.

Experiments:
Test in all cases: enrichment score (SH2-bound / input frequency) (ratio); bacterial display of known human phosphotyrosine sites (pTyr-Var adds point mutants) read by sequencing; higher = stronger binding; tyrosines were phosphorylated by kinases first
Settings in all cases: peptide library: pTyr-Var
SHP2 C-SH2 domain E139D = molecular target: SHP2 C-SH2 domain E139D
[1] = molecular target: SHP2 C-SH2 domain wild-type
SHP2 N-SH2 domain L43F = molecular target: SHP2 N-SH2 domain L43F
SHP2 N-SH2 domain T42A = molecular target: SHP2 N-SH2 domain T42A
SHP2 N-SH2 domain T52S = molecular target: SHP2 N-SH2 domain T52S
[2] = molecular target: SHP2 N-SH2 domain wild-type

Measured: enrichment score
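Note: displayed peptides selected on beads carrying the immobilized SH2 domain, with library peptides lacking any tyrosine serving as negative controls.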

B1: MYH7_Y410 (peptide)
chain: KVGNEYVTKGQ
inactive: SHP2 C-SH2 domain E139D 0.487 | [1] 0.478 | SHP2 N-SH2 domain L43F 0.545 | SHP2 N-SH2 domain T42A 0.376 | SHP2 N-SH2 domain T52S 0.463 | [2] 0.834

B2: MYH7_Y422 (peptide)
chain: VQQVIYATGAL
inactive: SHP2 C-SH2 domain E139D 1.03 | [1] 0.98 | SHP2 N-SH2 domain L43F 0.931 | SHP2 N-SH2 domain T42A 0.835 | SHP2 N-SH2 domain T52S 0.922 | [2] 1.15

B3: MYH7_Y422_G425R (peptide)
chain: VQQVIYATRAL
inactive: SHP2 C-SH2 domain E139D 1 | [1] 1.08 | SHP2 N-SH2 domain L43F 1.2 | SHP2 N-SH2 domain T42A 0.843 | SHP2 N-SH2 domain T52S 0.992 | [2] 0.919

B4: MYH7_Y588_D587V (peptide)
chain: AGIVVYNIIGW
inactive: SHP2 C-SH2 domain E139D 1.26 | [1] 1.67 | SHP2 N-SH2 domain L43F 1.56 | SHP2 N-SH2 domain T42A 1.33 | SHP2 N-SH2 domain T52S 1.05 | [2] 2.29

B5: MYH7_Y588_G584R (peptide)
chain: ARIVDYNIIGW
inactive: SHP2 C-SH2 domain E139D 0.822 | [1] 0.815 | SHP2 N-SH2 domain L43F 0.642 | SHP2 N-SH2 domain T42A 0.874 | SHP2 N-SH2 domain T52S 0.712 | [2] 0.888

B6: MYH7_Y609_V606M (peptide)
chain: TVMGLYQKSSL
inactive: SHP2 C-SH2 domain E139D 1.24 | [1] 0.548 | SHP2 N-SH2 domain L43F 1.25 | SHP2 N-SH2 domain T42A 0.786 | SHP2 N-SH2 domain T52S 1.18 | [2] 1.02

B7: MYH7_Y715_G716R (peptide)
chain: PNRILYRDFRQ
inactive: SHP2 C-SH2 domain E139D 0.49 | [1] 0.504 | SHP2 N-SH2 domain L43F 0.476 | SHP2 N-SH2 domain T42A 0.395 | SHP2 N-SH2 domain T52S 0.424 | [2] 0.374

B8: MYH7_Y715_R712L (peptide)
chain: PNLILYGDFRQ
inactive: SHP2 C-SH2 domain E139D 0.846 | [1] 0.874 | SHP2 N-SH2 domain L43F 0.985 | SHP2 N-SH2 domain T42A 1.19 | SHP2 N-SH2 domain T52S 0.985 | [2] 1.38

B9: MYH9_Y151 (peptide)
chain: MPPHIYAITDT
inactive: SHP2 C-SH2 domain E139D 1.19 | [1] 0.855 | SHP2 N-SH2 domain L43F 1.1 | SHP2 N-SH2 domain T42A 1.26 | SHP2 N-SH2 domain T52S 1.1 | [2] 0.992

B10: MYL12B_Y143_E141G (peptide)
chain: EVDGLYREAPI
inactive: SHP2 C-SH2 domain E139D 0.614 | [1] 0.491 | SHP2 N-SH2 domain L43F 0.536 | SHP2 N-SH2 domain T42A 0.466 | SHP2 N-SH2 domain T52S 0.515 | [2] 0.583

B11: MYL6_Y86_T85I (peptide)
chain: KDQGIYEDYVE
inactive: SHP2 C-SH2 domain E139D 0.53 | [1] 0.659 | SHP2 N-SH2 domain L43F 0.575 | SHP2 N-SH2 domain T42A 0.817 | SHP2 N-SH2 domain T52S 0.529 | [2] 0.618

B12: MYL6_Y86_T85I_YF (peptide)
chain: KDQGIYEDFVE
inactive: SHP2 C-SH2 domain E139D 0.577 | [1] 0.716 | SHP2 N-SH2 domain L43F 0.7 | SHP2 N-SH2 domain T42A 0.615 | SHP2 N-SH2 domain T52S 0.513 | [2] 0.741

B13: MYL6_Y89 (peptide)
chain: GTYEDYVEGLR
inactive: SHP2 C-SH2 domain E139D 0.843 | [1] 0.681 | SHP2 N-SH2 domain L43F 0.832 | SHP2 N-SH2 domain T42A 0.622 | SHP2 N-SH2 domain T52S 0.556 | [2] 0.678

B14: MYLK_Y611_R607G (peptide)
chain: SGKSEYLLPVA
inactive: SHP2 C-SH2 domain E139D 0.811 | [1] 0.726 | SHP2 N-SH2 domain L43F 0.773 | SHP2 N-SH2 domain T42A 0.765 | SHP2 N-SH2 domain T52S 0.726 | [2] 0.74

B15: MYO1A_Y382 (peptide)
chain: GVLDIYGFEIL
inactive: SHP2 C-SH2 domain E139D 0.94 | [1] 0.907 | SHP2 N-SH2 domain L43F 0.903 | SHP2 N-SH2 domain T42A 0.82 | SHP2 N-SH2 domain T52S 0.952 | [2] 1.33

B16: MYO1A_Y382_E385D (peptide)
chain: GVLDIYGFDIL
inactive: SHP2 C-SH2 domain E139D 1.13 | [1] 1.32 | SHP2 N-SH2 domain L43F 0.91 | SHP2 N-SH2 domain T42A 1 | SHP2 N-SH2 domain T52S 0.983 | [2] 1.16

B17: MYO1B_Y967 (peptide)
chain: PFQGAYLEINK
inactive: SHP2 C-SH2 domain E139D 1.08 | [1] 1.01 | SHP2 N-SH2 domain L43F 1.28 | SHP2 N-SH2 domain T42A 1.92 | SHP2 N-SH2 domain T52S 1 | [2] 1.12

B18: MYO1D_Y585 (peptide)
chain: ASKEPYYVRCI
inactive: SHP2 C-SH2 domain E139D 0.723 | [1] 0.885 | SHP2 N-SH2 domain L43F 0.686 | SHP2 N-SH2 domain T42A 0.792 | SHP2 N-SH2 domain T52S 0.584 | [2] 0.841

B19: MYO1D_Y585_R588H_YF (peptide)
chain: ASKEPYFVHCI
inactive: SHP2 C-SH2 domain E139D 0.819 | [1] 0.89 | SHP2 N-SH2 domain L43F 0.823 | SHP2 N-SH2 domain T42A 0.817 | SHP2 N-SH2 domain T52S 0.76 | [2] 0.796

B20: MYO1D_Y585_YF (peptide)
chain: ASKEPYFVRCI
inactive: SHP2 C-SH2 domain E139D 0.652 | [1] 0.653 | SHP2 N-SH2 domain L43F 0.721 | SHP2 N-SH2 domain T42A 0.589 | SHP2 N-SH2 domain T52S 0.672 | [2] 1.07

B21: MYO1D_Y586 (peptide)
chain: SKEPYYVRCIK
inactive: SHP2 C-SH2 domain E139D 0.723 | [1] 1 | SHP2 N-SH2 domain L43F 0.732 | SHP2 N-SH2 domain T42A 0.749 | SHP2 N-SH2 domain T52S 0.615 | [2] 0.882

B22: MYO1D_Y586_R588H_YF (peptide)
chain: SKEPFYVHCIK
inactive: SHP2 C-SH2 domain E139D 0.908 | [1] 0.832 | SHP2 N-SH2 domain L43F 0.727 | SHP2 N-SH2 domain T42A 0.606 | SHP2 N-SH2 domain T52S 0.781 | [2] 0.747

B23: MYO3A_Y1396 (peptide)
chain: HNLYSYPTKHE
inactive: SHP2 C-SH2 domain E139D 1.12 | [1] 1.76 | SHP2 N-SH2 domain L43F 1.07 | SHP2 N-SH2 domain T42A 1.18 | SHP2 N-SH2 domain T52S 1.06 | [2] 1.57

B24: MYO3B_Y993_R990C (peptide)
chain: IRCQGYSHRIL
inactive: SHP2 C-SH2 domain E139D 1.77 | [1] 1.71 | SHP2 N-SH2 domain L43F 1.62 | SHP2 N-SH2 domain T42A 1.72 | SHP2 N-SH2 domain T52S 1.91 | [2] 1.63

B25: MYO5C_Y526 (peptide)
chain: WLQKLYNNFVN
inactive: SHP2 C-SH2 domain E139D 2.25 | [1] 2.3 | SHP2 N-SH2 domain L43F 2.44 | SHP2 N-SH2 domain T42A 2.25 | SHP2 N-SH2 domain T52S 2.36 | [2] 2.17

B26: MYO5C_Y633_L634S (peptide)
chain: FRSSLYSLMET
inactive: SHP2 C-SH2 domain E139D 1.18 | [1] 0.995 | SHP2 N-SH2 domain L43F 1.15 | SHP2 N-SH2 domain T42A 1.81 | SHP2 N-SH2 domain T52S 1.18 | [2] 0.978

B27: MYO7A_Y1668 (peptide)
chain: PTDSVYVMPTV
inactive: SHP2 C-SH2 domain E139D 0.678 | [1] 0.784 | SHP2 N-SH2 domain L43F 0.676 | SHP2 N-SH2 domain T42A 0.656 | SHP2 N-SH2 domain T52S 0.933 | [2] 0.894

B28: MYO7A_Y2136 (peptide)
chain: IAINKYGVSLI
inactive: SHP2 C-SH2 domain E139D 0.919 | [1] 1.11 | SHP2 N-SH2 domain L43F 0.746 | SHP2 N-SH2 domain T42A 0.578 | SHP2 N-SH2 domain T52S 0.798 | [2] 1.35

B29: MYO9A_Y203_Y203C (peptide)
chain: KYVKMCDNHQL
inactive: SHP2 C-SH2 domain E139D 0.925 | [1] 0.827 | SHP2 N-SH2 domain L43F 0.944 | SHP2 N-SH2 domain T42A 0.736 | SHP2 N-SH2 domain T52S 0.972 | [2] 0.86

B30: MYO9A_Y203_YF (peptide)
chain: KFVKMYDNHQL
inactive: SHP2 C-SH2 domain E139D 0.799 | [1] 0.803 | SHP2 N-SH2 domain L43F 0.72 | SHP2 N-SH2 domain T42A 0.624 | SHP2 N-SH2 domain T52S 0.864 | [2] 0.792

B31: MYO9A_Y216 (peptide)
chain: LEPHIYAVADV
inactive: SHP2 C-SH2 domain E139D 0.825 | [1] 0.881 | SHP2 N-SH2 domain L43F 0.76 | SHP2 N-SH2 domain T42A 0.871 | SHP2 N-SH2 domain T52S 0.759 | [2] 1

B32: MYO9A_Y216_L211P (peptide)
chain: PEPHIYAVADV
inactive: SHP2 C-SH2 domain E139D 0.652 | [1] 0.826 | SHP2 N-SH2 domain L43F 0.611 | SHP2 N-SH2 domain T42A 0.558 | SHP2 N-SH2 domain T52S 0.777 | [2] 0.834

B33: MYOC_Y479_P481L (peptide)
chain: SSMIDYNLLEK
inactive: SHP2 C-SH2 domain E139D 0.873 | [1] 0.919 | SHP2 N-SH2 domain L43F 0.927 | SHP2 N-SH2 domain T42A 0.759 | SHP2 N-SH2 domain T52S 0.776 | [2] 0.988

B34: MYORG_Y36_M35V (peptide)
chain: AAAAVYTFLPD
inactive: SHP2 C-SH2 domain E139D 0.988 | [1] 1.15 | SHP2 N-SH2 domain L43F 1 | SHP2 N-SH2 domain T42A 0.996 | SHP2 N-SH2 domain T52S 0.793 | [2] 1.04

B35: NAMPT_Y175 (peptide)
chain: KILAKYLLETS
inactive: SHP2 C-SH2 domain E139D 0.873 | [1] 0.818 | SHP2 N-SH2 domain L43F 1.04 | SHP2 N-SH2 domain T42A 0.863 | SHP2 N-SH2 domain T52S 0.944 | [2] 0.747

B36: NANS_Y188_P189L (peptide)
chain: QCTSAYLLQPE
inactive: SHP2 C-SH2 domain E139D 0.974 | [1] 0.695 | SHP2 N-SH2 domain L43F 0.679 | SHP2 N-SH2 domain T42A 0.602 | SHP2 N-SH2 domain T52S 0.569 | [2] 1.29

B37: NANS_Y188_Y188H (peptide)
chain: QCTSAHPLQPE
inactive: SHP2 C-SH2 domain E139D 0.76 | [1] 1.08 | SHP2 N-SH2 domain L43F 0.933 | SHP2 N-SH2 domain T42A 0.745 | SHP2 N-SH2 domain T52S 0.627 | [2] 1.81
